Test results as given in the supplement of paper PMC11417369.
The list shows a part of the results.

Tested on: PfAP2-HC AP2 domain (GST-tagged)
Assay: gcPBM binding intensity (ln(normalized median fluorescence intensity)); higher = stronger DNA binding
How it was run: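 The binding buffer was 1× PBS containing 1% milk, 0.2 mg/ml BSA, 0.5% salmon testes DNA and 0.03% Triton X-100. In it, GST-tagged P. falciparum DNA-binding domains expressed in E. coli were applied for 1 h to an Agilent 4 × 180k array of primer-extended double-stranded 36-bp intergenic genomic probes plus negative controls. Binding intensity, read with Alexa488 anti-GST antibody and a 488 nm scan, is the highest Masliner-normalised natural-log median intensity across replicate spots of either probe orientation.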

| Sequence | gcPBM binding intensity (ln) |
| --- | --- |
| GGTATACATAATACTTGTACTAGGCAACAATAAGAT [XGTACX_site1437] | 9.75 |
| AAGAAGAAAAACCATTGTACGAACTAACATATATAA [XGTACX_site3226] | 9.77 |
| TGTTAAAAGAAAAAAAGTACAAAAAATTATACATTT [XGTACX_site467] | 9.45 |
| ATATATTTATATTTGTGTACATATTTATTATATTTA [XGTACX_site404] | 9.86 |
| AATATGAATATCTATACACACACATATATATACACA [CACACA_site8459] | 10.1 |
| ATTTGTGACCACACAAATAAATAAATAAAAAAAAAA [TGCATGCA_negctrl_site328] | 9.57 |
| TAATAATAGAAACACACACACATTTTTAATAATACA [CACACA_site1216] | 10.9 |
| TTTTATTTTTATAACAGTACATAAGTAATTGTTCAA [XGTACX_site7574] | 9.42 |
| TTATAATAAAAAAATTCCTAAGTCCGTATATATTAT [CACACA_negctrl_site1698] | 9.45 |
| TTTTATCATCACATTTGTCAAAAAAAAAAAAAAAAA [CACACA_negctrl_site1296] | 9.11 |
| ATATCAAACTAGAATGTGCGCATGCATTCAAGTTTT | 9.56 |
| TTATGTTCATTATATGCACACATATATATAAATGTA [CACACA_site8947] | 9.65 |
| GATTTTATAATTTCTACACACATATAAGAATATTCA [CACACA_site2802] | 9.7 |
| AAAAAAAATTTCTCAAGTACACAATTTTTTTTTGTT [XGTACX_site5874] | 9.51 |
| TTTTTTTAAATATATAAGATAAATTTATAAATAAAT [XGTACX_negctrl_site282] | 9.12 |
| TTCAATTTTTTAAAGCGTACATATAAAAGTTATATG [XGTACX_site731] | 9.26 |
| AATCATTTGTTATAAGTCTAAAATTATTAGAATATT [XGTACX_negctrl_site151] | 9.56 |
| ATTATTACATATAATGCATGTGCATATATTTTTATA [TGCATGCA_site701] | 9.69 |
| AAATTTGGATGACTCAATAAATTATAATATATATAT [CACACA_negctrl_site298] | 9.49 |
| ATATTCTTTATATGCATACACACCTAATATAGGGAC [CACACA_site1533] | 9.72 |
| ATATATATACTGTGTACACAAATATATATTATATAT [CACACA_site6104] | 9.76 |
| AAAAATAAAAAAAGCACACACATATAAATAAATATA [CACACA_site6968] | 10.2 |
| TAATTTTTCTTTTATTAACACACATATAAATAAATA [CACACA_site8935] | 9.46 |
| CCCAATAATTAAACAACACACATATTTATAGGTAAT [CACACA_site7445] | 10 |
